According to the supplement of paper PMC12632987:
Over roughly 4,500 sequences, “median log2 fold change of GCK-ALFA target abundance (FLAG IP / Myc IP barcode read proportion)” has its median near 0.078; the lowest 2% begin near -0.6. This is one part of the list.

B1: GBRAP_160_4165 (protein)
chain: MEKLEEAKKEIKEIFEEAAEMMKGQSAEERANIVRVAFGEIRLLLEEKGLLTDEVDEALDKIEEEVVTTILENPDLTDEELEELLKEALEKLFEALEKSY
B2: GBRAP_128_3546 (protein)
chain: SLEEAKALAEKAVEEIKASDVETARKITKELLETLKTKSLEEVEAAVETLKANLPTLTAEKLDAVADAIEEERGKFSPEVQELLADLEVEALNLAEELEE
B3: GBRAP_39_5714 (protein)
chain: DEEEELELLASYLEAEFAKEQYERGISDEEAIAEGMAFMRELAEANPEYKERIEALIKRAEELGPEAKRVLAAAAAGIRAGMPLEEALAVAEYEFEKLEA
B4: GBRAP_160_4294 (protein)
chain: SETLEKAKKLIDETFEETYELMEGESAENRAVIVDVELGSLIYELSELPEVSDEALDKIDEIRDELVAHILANPDLTPEELKALLEEAREKIKEILEKDF
B5: GBRAP_131_3607 (protein)
chain: IKGKLVTIEDAASVEEALARVDEAVEEALEEGYDVIVINLQNVSQEIYDAAEEKADELEERLKKEKGVTLVVLPPGTTLEEAQKILEALVLDKEEEKEEE
B6: GBRAP_35_5529 (protein)
chain: ATDEEIAEMLVATIDDLVLALPDMPVETALAAAKSIAEAAREVAREVKDNLEALEKIRESVERLAKALAEQAKKDPAMQPALELAQEVLKEIEELIKKAK
B7: GBRAP_78_6685 (protein)
chain: EVEELLDKALEHLGKAAKILAKMNTEEALDILGVVIDAASTVWEAQEGEADLAELEAALKALKKALKEVEKIDSEEAKEAAKEIKKAIKALEAAIKLLKK
B8: GBRAP_128_3496 (protein)
chain: STEELVARTRAIMEAIGKADAAEAAALTREWVALLASADEEAREAMVEVFKELLPELDAEKLDVIADTLREARPGLDPETANLVAELEVEALNAAEEKEE
B9: GBRAP_160_4602 (protein)
chain: SEEVEKLIKEIKEIFDEALKLIEGESPEERLVIIRVAAGEVLLLLDESPIVTDETEEFADEVLDEVLEWLEENPDASLEEIRAKLEEALEKIRKKLEEEA
B10: GBRAP_150_3913 (protein)
chain: DLEELLTVVDTLIDLLEAILDGEYELLPHAIKVAEHAVELAEELEEEIKKLAKEMLEALKEAKKLLEEGGPEEEIKEAVEKALELAEKLEKLIKKLIKEK
B11: GBRAP_52_6322 (protein)
chain: AAARIAAYAAEAVAAIRAGDDAGARALAERMVAELTPEEILEMTRLVAEAIAGEDDAVHERAVEFFEYLADLVIEKRGDERTAADILGIVATTLYAAELA
B12: GBRAP_11_2641 (protein)
chain: KKEALKKALELAREAIELLEQLLKEGVDNEELLEEIRRKLEELAKLVKKHADKALQKLVEIALELLKEAQEDPENKEQYVQNLLAALRVLAAELEELIDE
B13: GBRAP_52_5881 (protein)
chain: KLEKAIELLKKAIKAQKEGKEEEAEKILKKIVEEFDEEVILAAVERLAEEIKSKSLEEAKAFYETAEKLAKILLEKGGSEEVASYIEALAGAALYEVEQK
B14: GBRAP_150_3925 (protein)
chain: SIEELLTIVDTLIDLLEGIKDGELSLVPHALKLAEAAKEEAKELPEEVREPVLKLLEEIIKLLKEIIAGAPEEERKKLIEKALELAKEVKELVEELLEEE
B15: GBRAP_52_6123 (protein)
chain: MEERARALVEEIIALIRAGREEEARALAREAVATLDEEELRLVADELAELIKAATPEEQELLERAAEIIAEELERAGRDEVLADYVLSRAAAAAYEAELA
B16: GBRAP_52_6127 (protein)
chain: MRERAEELVERLLELEREGRREELERLAREIVETLDDEELRLVADVLAERAKRASPEEAEVIERVAEVLARAIEEAGRDEVLADYVESRVAAALYEREQA
B17: GBRAP_9_7167 (protein)
chain: EEAVKQAILETVKEGFEEALKIVPEEKKPLVEKMKKKAEEELEKLVADPNTTVEELKEKALKLLDEFLEEMKKEVDPETYAGIETEILTAKVEIDEIVEK
B18: GBRAP_125_3059 (protein)
chain: SKEQAIADLELLARALGFSDDDIAELRRLAEAGSIKNTLIAIALALGDEELADALEKLSEEEVEEVLREVAEELERNPELTPEEVRELLLKKAKEALKKA
B19: GBRAP_35_5615 (protein)
chain: EDTELAVESFVDQAEAIIELIPEIDDETLAALARSLIKFARSLLEEEKNDKEALEKIKEAMEKLLKALKEHRSDNPLIRKVAEEVEKVIKELKEAIKKIK

The binders below were run against GABARAP, O95166 (assay: median log2 fold change of GCK-ALFA target abundance (FLAG IP / Myc IP barcode read proportion) (log2 ratio); each designed protein is fused to an ALFA-tag nanobody in HEK293 cells to bring the named protein to FLAG-tagged glucokinase (GCK); Myc marks an untargeted standard; higher = target protein stabilised (more abundant)). Details: target protein: 3xFLAG-MCP-GCK-ALFA reporter; HEK293 landing pad (RPLP).
Procedure, shortened: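 Sequencing of reverse-transcribed, amplified circular RNA barcodes from anti-FLAG and anti-Myc immunoprecipitates provided the readout for an ALFA-nanobody-fused binder library recombined into HEK293 landing-pad cells. Those cells were induced with 2 μg mL^−1 doxycycline, transfected with a plasmid expressing a FLAG-tagged target and a Myc-tagged standard, and lysed after 48 h. Target abundance is the per-binder median log2 ratio of FLAG to Myc barcode read proportions. Only barcodes at a proportion of ≥10^−7 in both replicates and binders with ≥3 barcodes per replicate were kept, with a 10^−6 pseudocount added before the two replicates were pooled.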

Sequence of GABARAP, O95166 (O95166 whole entry, the tested form may be a part): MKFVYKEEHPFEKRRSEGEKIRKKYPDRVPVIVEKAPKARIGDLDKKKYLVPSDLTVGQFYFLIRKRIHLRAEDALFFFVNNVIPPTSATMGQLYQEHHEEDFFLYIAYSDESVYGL

Binder	median log2 fold change
B1	0.143
B2	0.281
B3	0.383
B4	-0.179
B5	0.174
B6	0.24
B7	-0.373
B8	0.208
B9	-0.397
B10	0.174
B11	-0.0845
B12	0.112
B13	0.313
B14	0.235
B15	0.226
B16	0.187
B17	0.291
B18	0.274
B19	0.0862
